Measurements as given in a compilation of properties of binary mixtures (doi:10.1016/j.molliq.2020.114573).
Some of these densities may be calculated back from excess volumes.

Test: xn = mol fraction of the nth substance listed
Conditions: 101.3 kPa

CC1COC(=O)O1 (stereo not given) + CCCC[n+]1ccn(C)c1.O=S(=O)([N-]S(=O)(=O)C(F)(F)F)C(F)(F)F
mass density [kg/m3]
Conditions | x2 = 0 | x2 = 0.0963 | x2 = 0.2043 | x2 = 0.3354 | x2 = 0.4039 | x2 = 0.5115 | x2 = 0.5865 | x2 = 0.7225 | x2 = 0.8 | x2 = 0.8498
288.15 K | 1209.4 | – | 1321.1 | 1360.4 | 1375.9 | – | 1406.4 | – | 1430.3 | 1434.7
293.15 K | 1204.1 | 1267.9 | 1315.9 | 1355.3 | – | 1390.4 | – | 1417.8 | – | 1429.8
298.15 K | 1198.8 | 1262.7 | 1310.8 | 1350.3 | 1365.8 | 1385.4 | 1396.5 | 1412.9 | – | 1425
303.15 K | 1193.5 | 1257.5 | – | 1345.2 | 1360.8 | – | – | 1408 | 1415.7 | 1420.1
308.15 K | 1188.2 | 1252.3 | – | 1340.2 | – | 1375.5 | – | – | 1410.9 | –
313.15 K | 1182.9 | – | – | – | 1350.9 | 1370.6 | – | 1398.3 | 1406 | 1410.5
318.15 K | 1177.6 | – | 1290.4 | 1330.2 | 1345.9 | 1365.7 | – | 1393.4 | 1401.2 | –
323.15 K | 1172.3 | 1236.7 | 1285.3 | 1325.2 | 1341 | 1360.8 | – | 1388.6 | 1396.4 | 1400.9
328.15 K | 1166.9 | 1231.6 | 1280.3 | 1320.2 | – | 1355.9 | 1367.2 | 1383.8 | – | –
333.15 K | 1161.6 | – | – | 1315.3 | 1331.1 | 1351 | 1362.4 | 1379 | 1386.9 | 1391.4
338.15 K | 1156.3 | 1221.3 | – | 1310.3 | 1326.2 | 1346.2 | 1357.6 | 1374.3 | 1382.2 | 1386.7
343.15 K | 1151 | 1216.1 | 1265.1 | 1305.4 | – | 1341.3 | 1352.8 | 1369.5 | 1377.4 | 1382
348.15 K | – | – | 1260.1 | 1300.4 | 1316.4 | 1336.5 | 1348 | 1364.8 | – | 1377.3

CCCCn1cc[n+](C)c1C.O=S(=O)([N-]S(=O)(=O)C(F)(F)F)C(F)(F)F + CC1COC(=O)O1
Conditions | mass density [kg/m3]
288.15 K, x1 = 0.1002 | 1270.8
288.15 K, x1 = 0.15 | 1293
288.15 K, x1 = 0.2001 | 1311.4
288.15 K, x1 = 0.3985 | 1362
288.15 K, x1 = 0.5984 | 1392.8
288.15 K, x1 = 0.7018 | 1404.4
288.15 K, x1 = 0.7915 | 1412.8
288.15 K, x1 = 0.8433 | 1417.1
288.15 K, x1 = 0.8805 | 1420
288.15 K, x1 = 1 | 1428.3
293.15 K, x1 = 0.0501 | 1238.3
293.15 K, x1 = 0.15 | 1287.9
293.15 K, x1 = 0.2001 | 1306.4
293.15 K, x1 = 0.3002 | 1335.6
293.15 K, x1 = 0.5002 | 1374.6
293.15 K, x1 = 0.5984 | 1388
293.15 K, x1 = 0.7018 | 1399.6
293.15 K, x1 = 0.7915 | 1408
293.15 K, x1 = 0.8433 | 1412.4
293.15 K, x1 = 0.8805 | 1415.3
293.15 K, x1 = 1 | 1423.6
298.15 K, x1 = 0.0501 | 1233.1
298.15 K, x1 = 0.1002 | 1260.5
298.15 K, x1 = 0.15 | 1282.8
298.15 K, x1 = 0.3002 | 1330.6
298.15 K, x1 = 0.3985 | 1352.3
298.15 K, x1 = 0.5002 | 1369.8
298.15 K, x1 = 0.5984 | 1383.3
298.15 K, x1 = 0.7018 | 1394.9
298.15 K, x1 = 0.7915 | 1403.3
298.15 K, x1 = 0.8433 | 1407.7
298.15 K, x1 = 0.8805 | 1410.6
298.15 K, x1 = 1 | 1419
303.15 K, x1 = 0.0501 | 1227.9
303.15 K, x1 = 0.15 | 1277.7
303.15 K, x1 = 0.2001 | 1296.3
303.15 K, x1 = 0.3002 | 1325.7
303.15 K, x1 = 0.3985 | 1347.4
303.15 K, x1 = 0.5002 | 1365
303.15 K, x1 = 0.5984 | 1378.5
303.15 K, x1 = 0.7915 | 1398.6
303.15 K, x1 = 0.8433 | 1403
303.15 K, x1 = 0.8805 | 1405.9
308.15 K, x1 = 0.0501 | 1222.6
308.15 K, x1 = 0.15 | 1272.7
308.15 K, x1 = 0.2001 | 1291.3
308.15 K, x1 = 0.3985 | 1342.5
308.15 K, x1 = 0.5002 | 1360.2
308.15 K, x1 = 0.5984 | 1373.7
308.15 K, x1 = 0.7018 | 1385.4
308.15 K, x1 = 0.7915 | 1393.9
308.15 K, x1 = 0.8433 | 1398.3
308.15 K, x1 = 0.8805 | 1401.2
308.15 K, x1 = 1 | 1409.7
313.15 K, x1 = 0.0501 | 1217.4
313.15 K, x1 = 0.1002 | 1245.1
313.15 K, x1 = 0.15 | 1267.6
313.15 K, x1 = 0.2001 | 1286.3
313.15 K, x1 = 0.3002 | 1315.8
313.15 K, x1 = 0.3985 | 1337.7
313.15 K, x1 = 0.5984 | 1369
313.15 K, x1 = 0.7018 | 1380.7
313.15 K, x1 = 0.7915 | 1389.2
313.15 K, x1 = 0.8805 | 1396.6
318.15 K, x1 = 0.0501 | 1212.2
318.15 K, x1 = 0.1002 | 1239.9
318.15 K, x1 = 0.2001 | 1281.3
318.15 K, x1 = 0.3002 | 1310.9
318.15 K, x1 = 0.3985 | 1332.8
318.15 K, x1 = 0.5002 | 1350.6
318.15 K, x1 = 0.5984 | 1364.2
318.15 K, x1 = 0.7018 | 1376
318.15 K, x1 = 0.7915 | 1384.6
318.15 K, x1 = 0.8433 | 1389
318.15 K, x1 = 0.8805 | 1391.9
323.15 K, x1 = 0.1002 | 1234.8
323.15 K, x1 = 0.15 | 1257.5
323.15 K, x1 = 0.2001 | 1276.3
323.15 K, x1 = 0.3002 | 1306
323.15 K, x1 = 0.5002 | 1345.8
323.15 K, x1 = 0.7018 | 1371.3
323.15 K, x1 = 0.7915 | 1379.9
323.15 K, x1 = 0.8433 | 1384.3
323.15 K, x1 = 0.8805 | 1387.3
323.15 K, x1 = 1 | 1395.8
328.15 K, x1 = 0.0501 | 1201.8
328.15 K, x1 = 0.2001 | 1271.3
328.15 K, x1 = 0.3002 | 1301.1
328.15 K, x1 = 0.3985 | 1323.2
328.15 K, x1 = 0.5984 | 1354.8
328.15 K, x1 = 0.7018 | 1366.7
328.15 K, x1 = 0.7915 | 1375.3
328.15 K, x1 = 0.8433 | 1379.7
328.15 K, x1 = 0.8805 | 1382.7
328.15 K, x1 = 1 | 1391.2
333.15 K, x1 = 0.0501 | 1196.6
333.15 K, x1 = 0.1002 | 1224.6
333.15 K, x1 = 0.15 | 1247.4
333.15 K, x1 = 0.2001 | 1266.3
333.15 K, x1 = 0.3002 | 1296.2
333.15 K, x1 = 0.3985 | 1318.4
333.15 K, x1 = 0.5002 | 1336.3
333.15 K, x1 = 0.5984 | 1350.1
333.15 K, x1 = 0.7018 | 1362
333.15 K, x1 = 0.8433 | 1375.1
333.15 K, x1 = 0.8805 | 1378.1
338.15 K, x1 = 0.0501 | 1191.4
338.15 K, x1 = 0.1002 | 1219.5
338.15 K, x1 = 0.15 | 1242.3
338.15 K, x1 = 0.2001 | 1261.3
338.15 K, x1 = 0.3002 | 1291.3
338.15 K, x1 = 0.3985 | 1313.6
338.15 K, x1 = 0.5002 | 1331.6
338.15 K, x1 = 0.5984 | 1345.4
338.15 K, x1 = 0.7018 | 1357.4
338.15 K, x1 = 0.7915 | 1366
338.15 K, x1 = 0.8433 | 1370.5
338.15 K, x1 = 0.8805 | 1373.5
338.15 K, x1 = 1 | 1382.1
343.15 K, x1 = 0.0501 | 1186.2
343.15 K, x1 = 0.1002 | 1214.4
343.15 K, x1 = 0.15 | 1237.3
343.15 K, x1 = 0.2001 | 1256.3
343.15 K, x1 = 0.3002 | 1286.5
343.15 K, x1 = 0.3985 | 1308.8
343.15 K, x1 = 0.5002 | 1326.8
343.15 K, x1 = 0.5984 | 1340.7
343.15 K, x1 = 0.7018 | 1352.7
343.15 K, x1 = 0.7915 | 1361.4
343.15 K, x1 = 0.8433 | 1365.9
343.15 K, x1 = 1 | 1377.5
348.15 K, x1 = 0.0501 | 1181.1
348.15 K, x1 = 0.1002 | 1209.3
348.15 K, x1 = 0.15 | 1232.3
348.15 K, x1 = 0.2001 | 1251.4
348.15 K, x1 = 0.3002 | 1281.6
348.15 K, x1 = 0.3985 | 1304
348.15 K, x1 = 0.5002 | 1322.1
348.15 K, x1 = 0.5984 | 1336.1
348.15 K, x1 = 0.7018 | 1348.1
348.15 K, x1 = 0.8433 | 1361.3
348.15 K, x1 = 0.8805 | 1364.3
348.15 K, x1 = 1 | 1373

CCCC[n+]1ccn(C)c1.O=S(=O)([N-]S(=O)(=O)C(F)(F)F)C(F)(F)F + CC1COC(=O)O1
x1 = 1
Conditions | mass density [kg/m3]
293.15 K | 1441.1
298.15 K | 1436.3
303.15 K | 1431.5
313.15 K | 1421.9
318.15 K | 1417.2
323.15 K | 1412.4
333.15 K | 1403
338.15 K | 1398.3
343.15 K | 1393.7
348.15 K | 1389
